Source: the BET-seq Pho4 binding data (Le et al. 2018)
The list shows a part of the results. Values were computed here from the reads of four pooled replicates and scatter widely.

These sequences were tested against T1, Pho4 (S. cerevisiae) (UniProt P07270) (assay: relative binding free energy (BET-seq); higher = weaker binding). Conditions: reference: library average.
T1 sequence: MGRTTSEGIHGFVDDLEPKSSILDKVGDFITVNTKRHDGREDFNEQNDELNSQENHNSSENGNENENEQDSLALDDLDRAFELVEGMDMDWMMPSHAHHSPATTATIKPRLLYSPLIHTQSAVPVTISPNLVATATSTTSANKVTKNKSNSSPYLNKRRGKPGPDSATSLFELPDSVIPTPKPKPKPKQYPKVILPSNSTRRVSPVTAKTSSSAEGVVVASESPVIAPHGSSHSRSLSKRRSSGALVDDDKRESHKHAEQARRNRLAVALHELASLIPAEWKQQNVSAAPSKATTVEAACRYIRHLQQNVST
AGAAGCACGTGTGAGT was tested, and the “relative binding free energy” value was 0.08 kcal/mol. In the case of ATTGCCACGTGGTAAG, the “relative binding free energy” value is reported as -0.06 kcal/mol. With TTGCACACGTGTTATG the “relative binding free energy” value was 0.01 kcal/mol. TTATCCACGTGGGTGG was tested, and the “relative binding free energy” value was -0.16 kcal/mol. TATGTCACGTGTCGGG was tested, and the “relative binding free energy” value was 0.11 kcal/mol. For TTCATCACGTGTTGCG, the “relative binding free energy” value was 0.08 kcal/mol. In the case of TGGTACACGTGGTGGA, the “relative binding free energy” value is reported as 0.05 kcal/mol. With TAGATCACGTGTCGTG the “relative binding free energy” value was 0.18 kcal/mol. In the case of GATAGCACGTGGGGCA, the “relative binding free energy” value is reported as -0.26 kcal/mol. CTGATCACGTGATGGG was tested, and the “relative binding free energy” value was 0.19 kcal/mol. In the case of TGCGGCACGTGAACGG, the “relative binding free energy” value is reported as 0.14 kcal/mol. GGTTTCACGTGCTCTG was tested, and the “relative binding free energy” value was 0.21 kcal/mol. For ATGGACACGTGTAAAT, the “relative binding free energy” value was 0.19 kcal/mol. With TGTCGCACGTGGGGAA the “relative binding free energy” value was -0.09 kcal/mol. In the case of GGGCTCACGTGTGTGG, the “relative binding free energy” value is reported as 0.28 kcal/mol. In the case of GACTTCACGTGTGTGA, the “relative binding free energy” value is reported as 0.38 kcal/mol. For GATGGCACGTGGGAAT, the “relative binding free energy” value was -0.01 kcal/mol. For GTGGACACGTGTATTC, the “relative binding free energy” value was 0.21 kcal/mol. With TTGAACACGTGGTGCG the “relative binding free energy” value was -0.14 kcal/mol. In the case of GTGTACACGTGCTTGT, the “relative binding free energy” value is reported as -0.07 kcal/mol. For GGAGACACGTGGTGGC, the “relative binding free energy” value was -0.01 kcal/mol. In the case of CGATGCACGTGTGTTT, the “relative binding free energy” value is reported as -0.03 kcal/mol. For AGGAGCACGTGGAGTC, the “relative binding free energy” value was -0.1 kcal/mol. For TTAGGCACGTGGGAGC, the “relative binding free energy” value was -0.1 kcal/mol. In the case of TGATACACGTGGGGTA, the “relative binding free energy” value is reported as -0.12 kcal/mol. With TTGGTCACGTGGCCGA the “relative binding free energy” value was -0.03 kcal/mol. In the case of GTTATCACGTGTTCAG, the “relative binding free energy” value is reported as 0.25 kcal/mol. GTTTTCACGTGTGCGT was tested, and the “relative binding free energy” value was 0.41 kcal/mol. TTATCCACGTGTTGTC was tested, and the “relative binding free energy” value was 0.11 kcal/mol. With AGGTTCACGTGAAATT the “relative binding free energy” value was 0.38 kcal/mol. For AATTTCACGTGCGGTT, the “relative binding free energy” value was 0.25 kcal/mol. In the case of AGATACACGTGGGAGG, the “relative binding free energy” value is reported as 0.04 kcal/mol. For AAATGCACGTGGTATG, the “relative binding free energy” value was -0.07 kcal/mol. With GGATTCACGTGTGAGG the “relative binding free energy” value was 0.42 kcal/mol. For GATGTCACGTGTCGGA, the “relative binding free energy” value was 0.27 kcal/mol. In the case of TGTGACACGTGGTTGG, the “relative binding free energy” value is reported as 0.01 kcal/mol. ATTCGCACGTGTGTGT was tested, and the “relative binding free energy” value was -0.07 kcal/mol. GTCGACACGTGGATGT was tested, and the “relative binding free energy” value was -0.03 kcal/mol. With CATTTCACGTGAGGTA the “relative binding free energy” value was 0.4 kcal/mol. TTGGGCACGTGGTCTG was tested, and the “relative binding free energy” value was -0.32 kcal/mol. With TTTGGCACGTGATGCA the “relative binding free energy” value was -0.05 kcal/mol. CGTTGCACGTGCTGGT was tested, and the “relative binding free energy” value was -0.19 kcal/mol. With TTAGTCACGTGTAGGG the “relative binding free energy” value was 0.14 kcal/mol. With AGAGGCACGTGTAGTG the “relative binding free energy” value was -0.06 kcal/mol. GGGCGCACGTGATGTA was tested, and the “relative binding free energy” value was 0.03 kcal/mol. For GGGAGCACGTGCGGTC, the “relative binding free energy” value was -0.04 kcal/mol. With GTCAACACGTGGGTGT the “relative binding free energy” value was -0.09 kcal/mol. For AGTCTCACGTGGCAGG, the “relative binding free energy” value was 0.08 kcal/mol. For GCTAGCACGTGTTTTG, the “relative binding free energy” value was -0.04 kcal/mol. For AATAACACGTGTGGTA, the “relative binding free energy” value was 0.1 kcal/mol. TGAGTCACGTGGCGCT was tested, and the “relative binding free energy” value was -0.01 kcal/mol. For GGAAACACGTGATGGG, the “relative binding free energy” value was 0.08 kcal/mol. With GGGGGCACGTGACTGC the “relative binding free energy” value was 0.02 kcal/mol. With TTTAACACGTGAATCG the “relative binding free energy” value was 0.24 kcal/mol. TATATCACGTGGATAG was tested, and the “relative binding free energy” value was 0.14 kcal/mol. TGAGGCACGTGGGTTG was tested, and the “relative binding free energy” value was -0.2 kcal/mol. For CTCATCACGTGGAGGG, the “relative binding free energy” value was 0.05 kcal/mol. For AGGCTCACGTGGGAAG, the “relative binding free energy” value was 0.06 kcal/mol. With AGGTGCACGTGCAATG the “relative binding free energy” value was -0.11 kcal/mol. With GTGGTCACGTGGGTAG the “relative binding free energy” value was -0.01 kcal/mol. For TGCCGCACGTGAGTGG, the “relative binding free energy” value was -0.02 kcal/mol. With TTTTGCACGTGATCAG the “relative binding free energy” value was -0.06 kcal/mol. In the case of GGTTACACGTGCGAGG, the “relative binding free energy” value is reported as -0.01 kcal/mol. With GAGTTCACGTGATTTT the “relative binding free energy” value was 0.48 kcal/mol. For TTTGTCACGTGGAATC, the “relative binding free energy” value was 0.28 kcal/mol. With TGATTCACGTGAATTT the “relative binding free energy” value was 0.4 kcal/mol. With ACATTCACGTGATTTT the “relative binding free energy” value was 0.39 kcal/mol. For TTCGGCACGTGGCGGA, the “relative binding free energy” value was -0.18 kcal/mol. In the case of TTAGTCACGTGGCCTG, the “relative binding free energy” value is reported as -0.06 kcal/mol. For TCTGTCACGTGTTGGT, the “relative binding free energy” value was 0.12 kcal/mol. In the case of GGCTGCACGTGATGGT, the “relative binding free energy” value is reported as 0.27 kcal/mol. In the case of TCAAGCACGTGAGGGG, the “relative binding free energy” value is reported as 0.19 kcal/mol. In the case of TATTTCACGTGCGAGG, the “relative binding free energy” value is reported as 0.19 kcal/mol. For GCTAGCACGTGGATGG, the “relative binding free energy” value was -0.08 kcal/mol. For CGTATCACGTGAGTAG, the “relative binding free energy” value was 0.24 kcal/mol. With TGTTGCACGTGGCGGA the “relative binding free energy” value was -0.09 kcal/mol. For AGTTACACGTGAATGG, the “relative binding free energy” value was 0.39 kcal/mol. ATGGGCACGTGAGATT was tested, and the “relative binding free energy” value was 0.17 kcal/mol. For GTGCGCACGTGGGCTT, the “relative binding free energy” value was -0.3 kcal/mol. In the case of TTCGACACGTGCGGTT, the “relative binding free energy” value is reported as 0.18 kcal/mol. TTGGACACGTGGAAGC was tested, and the “relative binding free energy” value was 0.14 kcal/mol. For GTCCGCACGTGGTGGG, the “relative binding free energy” value was -0.29 kcal/mol. In the case of TTTGCCACGTGGTGGA, the “relative binding free energy” value is reported as -0.1 kcal/mol. In the case of GGTGGCACGTGCAAGG, the “relative binding free energy” value is reported as -0.07 kcal/mol. With ATCTTCACGTGATTAT the “relative binding free energy” value was 0.19 kcal/mol. GGTGCCACGTGAAGGA was tested, and the “relative binding free energy” value was 0.08 kcal/mol. With CTGGGCACGTGGCAGG the “relative binding free energy” value was -0.27 kcal/mol. For GTTAACACGTGTGAGA, the “relative binding free energy” value was 0.24 kcal/mol. With AAGATCACGTGTGAGT the “relative binding free energy” value was 0.22 kcal/mol. With GGGTACACGTGAGAGA the “relative binding free energy” value was 0.22 kcal/mol. With AGTTGCACGTGGTATT the “relative binding free energy” value was -0.07 kcal/mol. For TTCTGCACGTGGTTTT, the “relative binding free energy” value was -0.07 kcal/mol. For TTCTGCACGTGGGAAG, the “relative binding free energy” value was -0.08 kcal/mol. In the case of GTGCGCACGTGGGCGG, the “relative binding free energy” value is reported as -0.37 kcal/mol. For TTAAACACGTGAGTTT, the “relative binding free energy” value was 0.27 kcal/mol. In the case of GTTAGCACGTGGATGC, the “relative binding free energy” value is reported as -0.01 kcal/mol. With AAGCACACGTGGCGGG the “relative binding free energy” value was 0.02 kcal/mol. In the case of GGCGTCACGTGGGTAC, the “relative binding free energy” value is reported as 0.07 kcal/mol. With AATTCCACGTGGCGGG the “relative binding free energy” value was 0.06 kcal/mol. For TTAGTCACGTGTACAT, the “relative binding free energy” value was 0 kcal/mol. With GGCGGCACGTGATGTT the “relative binding free energy” value was 0.2 kcal/mol. With TGGGGCACGTGGTAGC the “relative binding free energy” value was -0.16 kcal/mol. With GTGGTCACGTGGGAGG the “relative binding free energy” value was -0.01 kcal/mol. AGTTGCACGTGGGTAC was tested, and the “relative binding free energy” value was -0.25 kcal/mol. In the case of GAGTTCACGTGCTAGT, the “relative binding free energy” value is reported as 0.14 kcal/mol. GGTCGCACGTGGCGGC was tested, and the “relative binding free energy” value was -0.09 kcal/mol. CGCGTCACGTGAAGGG was tested, and the “relative binding free energy” value was 0.24 kcal/mol. With GGCTACACGTGGGTGA the “relative binding free energy” value was -0.07 kcal/mol. With GTAAACACGTGGCGGG the “relative binding free energy” value was -0.08 kcal/mol. In the case of TTGGTCACGTGAAGAA, the “relative binding free energy” value is reported as 0.29 kcal/mol. TCTGACACGTGGGGTT was tested, and the “relative binding free energy” value was -0.1 kcal/mol. For GGTAGCACGTGCGCGG, the “relative binding free energy” value was -0.12 kcal/mol. For CGTTTCACGTGATGGA, the “relative binding free energy” value was 0.25 kcal/mol. With TGTAACACGTGTTTTA the “relative binding free energy” value was -0.04 kcal/mol. In the case of AAAAGCACGTGGATAG, the “relative binding free energy” value is reported as 0.01 kcal/mol.
